From patent US12221481B2, “CD19 binding molecules and uses thereof” (Novartis AG, priority 2019, dated 2025)
Marks after values point to notes of the source that are not given here.

Assays:
Karpas422 target cells = test: RTCC against Karpas422, E:T 1:1, 96 hour (Examples 17, 21); type: cell-based, human
Description: (§1) The purified TBMs were compared across multiple donor effector cells. Briefly, huCD19-expressing Nalm6 and Karpas422 target cells were engineered to overexpress firefly luciferase. Cells were harvested and resuspendend in RPMI medium (Invitrogen #11875-093) with 10% FBS. 5,000 target cells per well were plated in a flat-bottom 384-well plate. Human pan T effector cells were isolated via negative selection (Stemcell Technologies #17951) from two donors from cryopreserved PBMCs that were separated from a leukopak (Hemacare #PB001F-1) by Ficoll density gradient centrifugation. Purified T cells were then added to the plate to obtain a final E:T ratio of 3:1, 1:1, 1:3 or 1:5. Co-cultured cells were incubated with serial dilutions of all constructs and controls. For normalization, average maximum luminescence refers to target cells co-incubated with effector cells, but without any test construct. After an incubation of 48, 72 or 96 hr at 37° C., 5% CO2, OneGlo luciferase substrate (Promega #E6120) was added to the plate. Luminescence was measured on an Envision plate reader after a 10 minute incubation. Percent specific lysis was calculated using the following equation: Specific lysis (%)=(1−(sample luminescence/average maximum luminescence))*100
An RTCC assay with huCD19-expressing Karpas422 target cells was performed according to the Materials and Methods described in Example 9, but with a final E:T ratio of 1:1 and a 96 hour incubation.

OCI-LY-19 target cells = test: Re-challenge RTCC assay, OCI-LY-19; type: cell-based, human; details: E:T 1:1, repeated target cell challenges
Description: OCI-LY-19 and Karpas422 target cells stably expressing firefly luciferase were plated in a Costar 6 well plate in T Cell Media (TCM). PBMCs previously isolated and cryopreserved from 2 Leukopak donors were thawed and Pan T cells were isolated (as described earlier). […] The plates were incubated for 4 days for OCI-LY-19 and 5 days for Karpas 422 cells. At the end of incubation, the killing of target cells was determined using the luminescence signal. The absolute T cell counts from each antibody treated condition was also determined. For the next round of rechallenge, it was ensured that the killing of target cells was equivalent across various antibody conditions. […] Additionally, a dose titration RTCC at a E:T of 1:1 and a concentration range of 2 nM-0.000001 nM was set-up using T cells from the different antibody treated conditions with a 4 day incubation used for each cell line. The killing of target cells was determined using the luminescence signal to generate dose response curves. At the end of the challenge, the above process was repeated once more for Karpas 422 and twice more for OCI-LY-19 cells.

T cells [1] = test: TBM and BBM binding to T cells (flow cytometry); set-up: species or system human; details: 33 μg/ml-0.005 μg/ml, on ice 1 hour
Description: Peripheral blood mononuclear cells (PBMCs) previously isolated and cryopreserved from 2 Leukopak donors (Hemacare) were thawed and Pan T cells were isolated by negative selection using the Pan T cell Isolation Kit, human (Miltenyi Biotec, Cat #130-096-535) following the manufacturer's protocol. T cells were resuspended in FACS Buffer and 100,000 cells were added to each well of a 96 well round bottom plate. A dilution series of CD3med TSP1, CD3hi TSP1, CD3hi BSP1, and CD3hi TSP1C ranging from 33 μg/ml-0.005 μg/ml was added to cells and incubated on ice for 1 hour. Cells were washed twice, resuspended in 100 μl of anti-human IgG secondary antibody and incubated on ice for another hour. After the incubation, cells were washed twice, resuspended in 100 pI of fixable viability dye and incubated on ice for 30 min. After washing twice again, cells were resuspended in 120 μl of FACS buffer. The cells were then run on BD LSR Fortessa and data was analyzed using FlowJo to determine the MFI of anti-human IgG secondary antibody, which was plotted against antibody concentration.

[2] = system: OCI-LY-19 diffuse large B-cell lymphoma (DLBCL) tumor; test: OCI-LY-19 DLBCL subcutaneous tumor model, human PBMC adoptive transfer, NSG mice (Example 28); details: for Δ Body weight from post-dose (Mean ± SEM) Day 25 / Δ Tumor burden from post-dose (Mean) Day 25 / ΔT/ΔC / Regression: single dose IV; for ΔT/ΔC / Regression: Day 25
T cells [3] = test: Cytokine release assay with Karpas422 cells (Example 18); type: cell-based, human; details: E:T 1:1, 48 hours
Description: Briefly, huCD19-expressing Nalm6 target cells were harvested and resuspended in RPMI medium with 10% FBS. 20,000 target cells per well were plated in a flat-bottom 96-well plate. Human pan T effector cells were isolated via MACS negative selection from cryopreserved PBMC then added to the plate to obtain a final E:T ratio of 5:1. Co-cultured cells were incubated with serial dilutions of all constructs and controls. After an incubation of 24 hr at 37° C., 5% CO2, the supernatants were harvested by centrifugation at 300×g for 5 min for subsequent analysis.
A multiplexed ELISA was performed according to the manufacturer's instructions using a V-PLEX Proinflammatory Panel 1 Kit (MesoScale Discovery #K15049D).
A cytokine release assay was performed as in Example 10, but with Karpas422 cells at a final E:T ratio of 1:1 and an incubation of 48 hours.

Oci-Ly19 target cells = test: RTCC against Oci-Ly19 (Example 22); type: cell-based, human; details: E:T 1:1, 48 hour
Description: as §1
(§2) Nalm6 KO was generated from Nalm6 parental cell line by using CRISPR-CAS9 technology and was confirmed to lack hCD19 expression. Oci-Ly19, Toledo, Nalm6, Nalm6 KO and K562 target cells were engineered to overexpress firefly luciferase. RTCC assays were performed with the different cells lines according to the Materials and Methods described in Example 9, but with a final E:T ratio of 1:1 and a 48 hour incubation.

Nalm6 target cells = test: RTCC against Nalm6 (Example 22); type: cell-based, human; details: E:T 1:1, 48 hour
Description: as §1, §2

[4] = system: OCI-LY-19 DLBCL subcutaneous tumor
[5] = statement made for the study as a whole

B1: CD3hi TSP1: Trispecific binding molecule: NEG258-based CD19 Fab, CD3hi anti-CD3 scFv, CD58 IgV domain, knob-into-hole silenced hIgG1 Fc (antibody)
heavy: QVQLVQSGAEVKKPGASVKVSCKASGYTFTTYWIQWVRQAPGQRLEWMGAVYPGDADTRYTQKFQGRVTLTADRSASTAYMELSSLRSEDTAVYYCGRDAGLEYYALDYWGQGTLVTVSSASTKGPSVFPLAPSSKSTSGGTAALGCLVKDYFPEPVTVSWNSGALTSGVHTFPAVLQSSGLYSLSSVVTVPSSSLGTQTYICNVNHKPSNTKVDKRVEPKSCGGGGSGGGGSEVQLVESGGGLVQPGGSLKLSCAASGFTFNTYAMNWVRQASGKGLEWVGRIRSKYNNYATYYADSVKDRFTISRDDSKSTLYLQMNSLKTEDTAVYYCVRHGNFGNSYVSWFAYWGQGTLVTVSSGGGGSGGGGSGGGGSGGGGSQAVVTQEPSLTVSPGGTVTLTCRSSTGAVTTSNYANWVQQKPGQAPRGLIGGTNKRAPWTPARFSGSLLGDKAALTLSGAQPEDEAEYFCALWYSNLWVFGGGTKLTVLGGGGSDKTHTCPPCPAPELLGGPSVFLFPPKPKDTLMISRTPEVTCVVVAVSHEDPEVKFNWYVDGVEVHNAKTKPREEQYASTYRVVSVLTVLHQDWLNGKEYKCKVSNKALAAPIEKTISKAKGQPREPQVCTLPPSREEMTKNQVSLSCAVKGFYPSDIAVEWESNGQPENNYKTTPPVLDSDGSFFLVSKLTVDKSRWQQGNVFSCSVMHEALHNHYTQKSLSLSPGK
light: EIVMTQSPATLSVSPGERATLSCRASQDVGTAVAWYQQKPGQAPRLLIYWASTRHTGIPARFSGSGSGTEFTLTISSLQSEDFAVYFCQQYANFPLYTFGQGTKLEIKRTVAAPSVFIFPPSDEQLKSGTASVVCLLNNFYPREAKVQWKVDNALQSGNSQESVTEQDSKDSTYSLSSTLTLSKADYEKHKVYACEVTHQGLSSPVTKSFNRGEC
chain: SQQIYGVVYGNVTFHVPSNVPLKEVLWKKQKDKVAELENSEFRAFSSFKNRVYLDTVSGSLTIYNLTSSDEDEYEMESPNITDTMKFFLYVLESGGGGSDKTHTCPPCPAPELLGGPSVFLFPPKPKDTLMISRTPEVTCVVVAVSHEDPEVKFNWYVDGVEVHNAKTKPREEQYASTYRVVSVLTVLHQDWLNGKEYKCKVSNKALAAPIEKTISKAKGQPREPQVYTLPPCREEMTKNQVSLWCLVKGFYPSDIAVEWESNGQPENNYKTTPPVLDSDGSFFLYSKLTVDKSRWQQGNVFSCSVMHEALHNHYTQKSLSLSPGK
- cytotoxic activity compared between constructs (Karpas422 target cells): highest cytotoxic activity
- cytotoxic activity (specific lysis) (Karpas422 target cells; two T cell donors): show cytotoxic activity
- retention of killing ability upon repeated challenges (OCI-LY-19 target cells): better retain killing ability upon repeated challenges
- binding to T cells (MFI of anti-human IgG secondary antibody) (T cells [1]): strongest binder
- % ΔT/ΔC ([2]; 0.003 mg/kg (so in the source), single IV administration): 1.38%
- anti-tumor activity ([2]; 0.003 mg/kg, single IV administration): not active
- Δ Body weight from post-dose (Mean ± SEM) Day 25 ([2]; 0.003 mg/kg): 1.7 ± 1.6%
- Δ Tumor burden from post-dose (Mean) Day 25 ([2]; 0.003 mg/kg): 198.9588 mm^3
- ΔT/ΔC ([2]; 0.003 mg/kg): 24.20%
- Δ Body weight from post-dose (Mean ± SEM) Day 25 ([2]; 0.01 mg/kg): −0.7 ± 1.8%
- Δ Tumor burden from post-dose (Mean) Day 25 ([2]; 0.01 mg/kg): 11.38 mm^3
- ΔT/ΔC ([2]; 0.01 mg/kg): 1.38%
- tumor regression ([2]; 0.03 mg/kg, single IV administration): 13.74%
- Δ Body weight from post-dose (Mean ± SEM) Day 25 ([2]; 0.03 mg/kg): 1.9 ± 2.0%
- Δ Tumor burden from post-dose (Mean) Day 25 ([2]; 0.03 mg/kg): −29.7413 mm^3
- Regression ([2]; 0.03 mg/kg): 13.74* %
- tumor regression ([2]; 0.1 mg/kg, single IV administration): 72.41%
- Δ Body weight from post-dose (Mean ± SEM) Day 25 ([2]; 0.1 mg/kg): 1.2 ± 2.3%
- Δ Tumor burden from post-dose (Mean) Day 25 ([2]; 0.1 mg/kg): −155.988 mm^3
- Regression ([2]; 0.1 mg/kg): 72.41* %
- tumor regression ([2]; 0.3 mg/kg, single IV administration): 84.50%
- Δ Body weight from post-dose (Mean ± SEM) Day 25 ([2]; 0.3 mg/kg): −0.4 ± 1.0%
- Δ Tumor burden from post-dose (Mean) Day 25 ([2]; 0.3 mg/kg): −187.737 mm^3
- Regression ([2]; 0.3 mg/kg): 84.50* %
- antibody associated body weight loss ([2]; single IV administration, 0.003-0.3 mg/kg): no antibody associated body weight loss
- cytokine secretion by T cells (IFN-γ, IL-2, TNF-α) (T cells [3]): induced cytokine secretion by T cells
- level of cytokine secretion compared between constructs (T cells [3]): highest levels of cytokine secretion
- cytotoxic activity (specific lysis) (Oci-Ly19 target cells): showed cytotoxic activity
- cytotoxic activity compared between constructs (Oci-Ly19 target cells; [5]): comparable cytotoxic activity to blinatumomab
- cytotoxic activity (specific lysis) (Nalm6 target cells): showed cytotoxic activity
- cytotoxic activity compared between constructs (Nalm6 target cells; [5]): comparable cytotoxic activity to blinatumomab
- tumor regression ([4]; 0.3 mg/kg IV weekly, Day 24): 47.4%
- Δ Body weight from initial (Mean ± SEM) Day 24 ([4]; 0.3 mg/kg, QWx3 IV): −13.51 ± 2.15%
- Δ Tumor burden from initial (Mean ± SEM) Day 24 ([4]; 0.3 mg/kg, QWx3 IV): −175.93 ± 76.8 mm^3
- Regression ([4]; 0.3 mg/kg, QWx3 IV, Day 24): 47.4* %
- treatment associated body weight loss ([4]; observed following the first dose only): treatment associated body weight loss
